Data: patent US20090291088A1, “THERAPEUTIC COMBINATIONS OF ANTI-IGF-1R ANTIBODIES AND OTHER COMPOUNDS” (Biogen Idec MA Inc., priority 2008, published 2009)

Assays:
human INSR(28-956)-His10 = biological target: T1, human INSR(28-956)-His10 (Homo sapiens, UniProt P06213); assay: SPR, receptor ectodomain injected over immobilized antibodies: INSR; assay type: binding; details: full-length fully human antibodies; up to 2 μM receptor
T1 construct: human INSR(28-956)-His10 (INSR (R&D systems)); purchased R & D Systems 1544-IR
Method: SPR analyses were performed using a Biacore3000. The instrument was set to 25° C. and assays performed with running buffer HBS-EP pH 7.2 purchased from Biacore (Biacore, Cat. No. BR-1001-88). The fully human antibodies, M13-C06, M14-C03, and M14-G11 were immobilized to ˜10,000 RU on Biacore CM5 Research Grade Sensor Chip surfaces using the standard NHS/EDC-amine reactive chemistry according to protocols supplied by Biacore. For immobilization, the antibodies were diluted to 40 μg/mL in a 10 mM Acetate pH 4.0 buffer. To investigate the relative kinetics of association and dissociation of the full-length ectodomains of human IGF-1R(1-902)-His10 (hIGF-1R-His10 (R&D systems)) and human INSR(28-956)-His10 (INSR (R&D systems)) to each of the human antibodies, increasing concentrations of hIGF-1R-His10 or INSR were injected over the sensorchip surfaces. The hIGF-1R-His10 concentration series ranged from 1.0 nM to 250 nM while the INSR concentrations ranged from 1.0 nM to 2 μM. All antibody surfaces were reliably regenerated with 100 mM Glycine, pH 2.0. […] Flow rates were 20 μl/min. (“His10” denotes a 10-residue histidine tag on the C-terminus of the constructs.)

[1] = test system: human tumor lines (H-23, Calu-6, BxPc-3, Panc-1, MiaPaCa, Colo205); assay: In vitro growth of lung, pancreas and colon tumor cell lines in medium supplemented with IGF-1 or IGF-2; assay type: cell-based
Method: NCI-H23, Calu-6, Colo-205, Panc-1, BxPC-3 (ATCC) tumor lines were purchased from ATCC. Cell lines were grown in complete growth medium containing RPMI-1640 (ATCC), 10% fetal bovine serum (Irvine Scientific Inc.) and 50 μg/ml of Gentamycin (Gibco, Invitrogen). Trypsin-EDTA solution (Sigma) was used for removal of adherent cells from culture vessels. Phosphate buffered saline, pH 7.2, was from MediaTech Inc The 96-well clear bottom plates for luminescent assay was purchased from Wallac Inc.
Cells grown to 80% monolayers were, trypsinized, washed, resuspended and plated into 96-well plates in 200 μl of 2% growth medium at 8×10^3 cells/well for NCI-H23 and Colo-205 cells; and 5×10^3 cells/well for Calu-6, Panc-1 and BxPC-3 cells. After 24 hours, the culture medium was replaced with 100 μl of serum free medium (SFM), and 50 μl of serially diluted antibodies at 4× concentration was added. […] All treatments were done in triplicates. Cell growth was measured using the CELL TITER-GLO™ Luminescent Cell Viability Assay (Promega, Madison, Wis.). The 1:1 mixture of reagent and SFM was added at 200 μl/well. Luminescence was detected on Wallac (Boston, Mass.) plate reader.
The ability of the selected murine antibodies to inhibit IGF/IGF-1R dependent in vitro growth of several human tumor lines (Lung, H-23, Calu-6; Pancreas, BxPc-3, Panc-1, MiaPaCa and Colon Colo205) was measured by a proliferation assay described in Example 13.

cynomolgus IGF-1R = assay: Binding to cynomolgus IGF-1R expressed in CHO cells (flow cytometry, confocal); design: species or system cynomolgus monkey
Method: (§1) The ability of anti-human IGF-1R antibodies to recognize the IGF-1R from non-human primates was tested. First Rhesus and cynomolgus monkey IGF-1R was cloned and expressed in CHO cells. The binding of all antibodies was determined by flow cytometry and confirmed by confocal microscopy.

Rhesus IGF-1R = biological target: T2, Rhesus IGF-1R (Macaca mulatta, UniProt I2CWY3); assay: Binding to Rhesus IGF-1R expressed in CHO cells (flow cytometry, confocal)
T2 construct: expressed in transfected cells; host or cells: CHO cells
T2 sequence (I2CWY3 31-1367): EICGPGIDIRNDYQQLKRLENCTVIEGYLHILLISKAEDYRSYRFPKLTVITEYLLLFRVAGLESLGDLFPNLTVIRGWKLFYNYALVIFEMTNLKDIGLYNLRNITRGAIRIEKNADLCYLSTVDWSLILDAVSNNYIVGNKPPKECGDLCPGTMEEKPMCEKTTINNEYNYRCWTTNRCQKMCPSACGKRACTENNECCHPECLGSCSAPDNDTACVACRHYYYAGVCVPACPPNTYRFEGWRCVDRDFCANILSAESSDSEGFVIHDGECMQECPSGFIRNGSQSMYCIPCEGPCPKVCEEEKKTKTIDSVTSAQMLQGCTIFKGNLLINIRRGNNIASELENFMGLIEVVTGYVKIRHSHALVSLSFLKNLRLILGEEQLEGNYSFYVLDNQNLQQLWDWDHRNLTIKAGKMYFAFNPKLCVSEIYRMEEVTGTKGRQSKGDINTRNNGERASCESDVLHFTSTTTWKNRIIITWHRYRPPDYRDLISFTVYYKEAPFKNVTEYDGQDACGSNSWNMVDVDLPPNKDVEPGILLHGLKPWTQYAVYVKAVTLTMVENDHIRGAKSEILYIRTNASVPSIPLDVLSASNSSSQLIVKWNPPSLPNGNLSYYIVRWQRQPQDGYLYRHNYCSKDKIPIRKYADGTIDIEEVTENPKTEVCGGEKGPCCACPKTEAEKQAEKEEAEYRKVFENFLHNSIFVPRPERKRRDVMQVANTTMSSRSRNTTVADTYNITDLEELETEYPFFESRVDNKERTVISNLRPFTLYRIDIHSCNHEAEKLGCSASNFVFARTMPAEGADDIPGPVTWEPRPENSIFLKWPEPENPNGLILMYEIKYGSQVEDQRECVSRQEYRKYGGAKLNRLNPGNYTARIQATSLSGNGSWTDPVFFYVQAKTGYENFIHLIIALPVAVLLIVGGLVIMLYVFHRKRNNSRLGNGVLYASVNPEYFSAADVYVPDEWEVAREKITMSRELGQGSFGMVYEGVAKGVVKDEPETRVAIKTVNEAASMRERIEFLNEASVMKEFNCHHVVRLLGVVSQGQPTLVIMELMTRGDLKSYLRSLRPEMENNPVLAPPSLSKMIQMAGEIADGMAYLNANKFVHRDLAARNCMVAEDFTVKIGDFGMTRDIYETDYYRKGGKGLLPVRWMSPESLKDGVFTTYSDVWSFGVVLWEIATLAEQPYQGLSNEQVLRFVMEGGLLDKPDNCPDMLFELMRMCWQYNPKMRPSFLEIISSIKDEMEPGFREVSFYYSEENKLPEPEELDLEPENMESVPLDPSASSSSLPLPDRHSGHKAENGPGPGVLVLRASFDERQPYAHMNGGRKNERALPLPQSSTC
Method: as §1

B1: M14-G11: anti-IGF1-R antibody, competitive blocker of IGF-1 and IGF-2 (antibody, V domains shown)
VH: EVQLLESGGGLVQPGGSLRLSCAASGFTFSNYPMYWVRQAPGKGLEWVSRISSSGGRTVYADSVKGRFTISRDNSKNTLYLQMNSLRAEDTAVYYCARDRWSRSAAEYGLGGYWGQGTLVTVSS
VL: DIQMTQSPDSLAVSLGERATINCKSSQSVLYSSNNKNYLAWYQQKPGQPPKLLIYLASTRESGVPDRFSGSGSGTDFTLTISSLQAEDVAVYYCQQYYSTWTFGQGTKVEIK
modifications: Antibody variable heavy chain sequence; Antibody variable light chain sequence
binding of INSR to immobilized antibody surface (human INSR(28-956)-His10): little binding activity

B2: M13-C06.G4.P.agly: full-length hinge-modified aglycosylated human gamma 4, kappa antibody with the binding domain of Fab M13-C06 (antibody)
heavy: EVQLLESGGGLVQPGGSLRLSCAASGFTFSIYRMQWVRQAPGKGLEWVSGISPSGGTTWYADSVKGRFTISRDNSKNTLYLQMNSLRAEDTAVYYCARWSGGSGYAFDIWGQGTMVTVSSASTKGPSVFPLAPCSRSTSESTAALGCLVKDYFPEPVTVSWNSGALTSGVHTFPAVLQSSGLYSLSSVVTVPSSSLGTKTYTCNVDHKPSNTKVDKRV[human IgG4 Fc with S228P T299A (EU numbers) not written out]
light: DIQMTQSPLSLSASVGDRVTITCQASRDIRNYLNWYQQKPGKAPKLLIYDASSLQTGVPSRFGGSGSGTDFSFTIGSLQPEDIATYYCQQFDSLPHTFGQGTKLEIKRTVAAPSVFIFPPSDEQLKSGTASVVCLLNNFYPREAKVQWKVDNALQSGNSQESVTEQDSKDSTYSLSSTLTLSKADYEKHKVYACEVTHQGLSSPVTKSFNRGEC
percent growth inhibition ([1]; A549 (Lung), IGF-1 in Media, 0.1 nM antibody): 39%
percent growth inhibition ([1]; A549 (Lung), IGF-1 in Media, 1 nM antibody): 58%
percent growth inhibition ([1]; A549 (Lung), IGF-1 in Media, 10 nM antibody): 79%
percent growth inhibition ([1]; A549 (Lung), IGF-1 in Media, 100 nM antibody): 87%
percent growth inhibition ([1]; A549 (Lung), IGF-2 in Media, 0.1 nM antibody): 37%
percent growth inhibition ([1]; A549 (Lung), IGF-2 in Media, 1 nM antibody): 61%
percent growth inhibition ([1]; A549 (Lung), IGF-2 in Media, 10 nM antibody): 76%
percent growth inhibition ([1]; A549 (Lung), IGF-2 in Media, 100 nM antibody): 85%
percent growth inhibition ([1]; BXPC3 (Pancreas), IGF-1 in Media, 0.1 nM antibody): 12%
percent growth inhibition ([1]; BXPC3 (Pancreas), IGF-1 in Media, 1 nM antibody): 34%
percent growth inhibition ([1]; BXPC3 (Pancreas), IGF-1 in Media, 10 nM antibody): 54%
percent growth inhibition ([1]; BXPC3 (Pancreas), IGF-1 in Media, 100 nM antibody): 82%
percent growth inhibition ([1]; BXPC3 (Pancreas), IGF-2 in Media, 0.1 nM antibody): 63%
percent growth inhibition ([1]; BXPC3 (Pancreas), IGF-2 in Media, 1 nM antibody): 79%
percent growth inhibition ([1]; BXPC3 (Pancreas), IGF-2 in Media, 10 nM antibody): 96%
percent growth inhibition ([1]; BXPC3 (Pancreas), IGF-2 in Media, 100 nM antibody): 99%
percent growth inhibition ([1]; Calu-6 (Lung), IGF-1 in Media, 0.1 nM antibody): 12%
percent growth inhibition ([1]; Calu-6 (Lung), IGF-1 in Media, 1 nM antibody): 15%
percent growth inhibition ([1]; Calu-6 (Lung), IGF-1 in Media, 10 nM antibody): 19%
percent growth inhibition ([1]; Calu-6 (Lung), IGF-1 in Media, 100 nM antibody): 53%
percent growth inhibition ([1]; Calu-6 (Lung), IGF-2 in Media, 0.1 nM antibody): −4%
percent growth inhibition ([1]; Calu-6 (Lung), IGF-2 in Media, 1 nM antibody): 16%
percent growth inhibition ([1]; Calu-6 (Lung), IGF-2 in Media, 10 nM antibody): 27%
percent growth inhibition ([1]; Calu-6 (Lung), IGF-2 in Media, 100 nM antibody): 62%
percent growth inhibition ([1]; Capan-1 (Pancreas), IGF-1 in Media, 1 nM antibody): 0%
percent growth inhibition ([1]; Capan-1 (Pancreas), IGF-1 in Media, 10 nM antibody): 20%
percent growth inhibition ([1]; Capan-1 (Pancreas), IGF-1 in Media, 100 nM antibody): 17%
percent growth inhibition ([1]; Capan-1 (Pancreas), IGF-2 in Media, 0.1 nM antibody): 19%
percent growth inhibition ([1]; Capan-1 (Pancreas), IGF-2 in Media, 1 nM antibody): 12%
percent growth inhibition ([1]; Capan-1 (Pancreas), IGF-2 in Media, 10 nM antibody): 12%
percent growth inhibition ([1]; Capan-1 (Pancreas), IGF-2 in Media, 100 nM antibody): 31%
percent growth inhibition ([1]; Capan-2 (Pancreas), IGF-1 in Media, 0.1 nM antibody): 14%
percent growth inhibition ([1]; Capan-2 (Pancreas), IGF-1 in Media, 1 nM antibody): 22%
percent growth inhibition ([1]; Capan-2 (Pancreas), IGF-1 in Media, 10 nM antibody): 36%
percent growth inhibition ([1]; Capan-2 (Pancreas), IGF-1 in Media, 100 nM antibody): 49%
percent growth inhibition ([1]; Colo 205 (Colon), IGF-1 in Media, 0.1 nM antibody): 15%
percent growth inhibition ([1]; Colo 205 (Colon), IGF-1 in Media, 1 nM antibody): 37%
percent growth inhibition ([1]; Colo 205 (Colon), IGF-1 in Media, 10 nM antibody): 56%
percent growth inhibition ([1]; Colo 205 (Colon), IGF-1 in Media, 100 nM antibody): 76%
percent growth inhibition ([1]; Colo 205 (Colon), IGF-2 in Media, 0.1 nM antibody): 18%
percent growth inhibition ([1]; Colo 205 (Colon), IGF-2 in Media, 1 nM antibody): 30%
percent growth inhibition ([1]; Colo 205 (Colon), IGF-2 in Media, 10 nM antibody): 45%
percent growth inhibition ([1]; NCI-H23 (Lung), IGF-1 in Media, 0.1 nM antibody): 12%
percent growth inhibition ([1]; NCI-H23 (Lung), IGF-1 in Media, 1 nM antibody): 32%
percent growth inhibition ([1]; NCI-H23 (Lung), IGF-1 in Media, 10 nM antibody): 61%
percent growth inhibition ([1]; NCI-H23 (Lung), IGF-1 in Media, 100 nM antibody): 84%
percent growth inhibition ([1]; NCI-H23 (Lung), IGF-2 in Media, 1 nM antibody): 32%
percent growth inhibition ([1]; NCI-H23 (Lung), IGF-2 in Media, 10 nM antibody): 61%
percent growth inhibition ([1]; NCI-H23 (Lung), IGF-2 in Media, 100 nM antibody): 85%
percent growth inhibition ([1]; Panc-1 (Pancreas), IGF-1 in Media, 0.1 nM antibody): 0%
percent growth inhibition ([1]; Panc-1 (Pancreas), IGF-1 in Media, 1 nM antibody): 0%
percent growth inhibition ([1]; Panc-1 (Pancreas), IGF-1 in Media, 10 nM antibody): 18%
percent growth inhibition ([1]; Panc-1 (Pancreas), IGF-1 in Media, 100 nM antibody): 60%
percent growth inhibition ([1]; Panc-1 (Pancreas), IGF-2 in Media, 0.1 nM antibody): 0%
percent growth inhibition ([1]; Panc-1 (Pancreas), IGF-2 in Media, 1 nM antibody): 12%
percent growth inhibition ([1]; Panc-1 (Pancreas), IGF-2 in Media, 10 nM antibody): 35%
percent growth inhibition ([1]; Panc-1 (Pancreas), IGF-2 in Media, 100 nM antibody): 62%
percent growth inhibition ([1]; SK-MES-1 (Lung), IGF-1 in Media, 0.1 nM antibody): −30%
percent growth inhibition ([1]; SK-MES-1 (Lung), IGF-1 in Media, 1 nM antibody): −15%
percent growth inhibition ([1]; SK-MES-1 (Lung), IGF-1 in Media, 10 nM antibody): 5%
percent growth inhibition ([1]; SK-MES-1 (Lung), IGF-1 in Media, 100 nM antibody): 46%
percent growth inhibition ([1]; SW620 (Colon), IGF-1 in Media, 0.1 nM antibody): 10%
percent growth inhibition ([1]; SW620 (Colon), IGF-1 in Media, 1 nM antibody): 12%
percent growth inhibition ([1]; SW620 (Colon), IGF-1 in Media, 10 nM antibody): 13%
percent growth inhibition ([1]; SW620 (Colon), IGF-1 in Media, 100 nM antibody): 27%

B3: M14-G11.G4.P: full-length human IgG4.P version of Fab M14-G11 (antibody, V domains shown)
VH: B1 VH
VL: B1 VL
binding to cynomolgus IGF-1R (cynomolgus IGF-1R): specific binding activity
binding to Rhesus IGF-1R (Rhesus IGF-1R): specific binding activity
